Reference: paper PMC4336329 (PLoS ONE, 2015)
The campaign covered roughly 310,000 compounds. About 14,000 (4.5%) showed an effect of 50% or more. Effects have a minus sign here. The list shows a part of the results.

biological target: human ether-à-go-go-related gene (hERG) potassium channel (human, UniProt Q12809); assay: primary screen, population patch clamp on CHO cells stably expressing hERG
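Note: peak tail current of the secondary pulse compared with the same well before compound.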

Chain of human ether-à-go-go-related gene (hERG) potassium channel (Q12809 whole entry, looked up): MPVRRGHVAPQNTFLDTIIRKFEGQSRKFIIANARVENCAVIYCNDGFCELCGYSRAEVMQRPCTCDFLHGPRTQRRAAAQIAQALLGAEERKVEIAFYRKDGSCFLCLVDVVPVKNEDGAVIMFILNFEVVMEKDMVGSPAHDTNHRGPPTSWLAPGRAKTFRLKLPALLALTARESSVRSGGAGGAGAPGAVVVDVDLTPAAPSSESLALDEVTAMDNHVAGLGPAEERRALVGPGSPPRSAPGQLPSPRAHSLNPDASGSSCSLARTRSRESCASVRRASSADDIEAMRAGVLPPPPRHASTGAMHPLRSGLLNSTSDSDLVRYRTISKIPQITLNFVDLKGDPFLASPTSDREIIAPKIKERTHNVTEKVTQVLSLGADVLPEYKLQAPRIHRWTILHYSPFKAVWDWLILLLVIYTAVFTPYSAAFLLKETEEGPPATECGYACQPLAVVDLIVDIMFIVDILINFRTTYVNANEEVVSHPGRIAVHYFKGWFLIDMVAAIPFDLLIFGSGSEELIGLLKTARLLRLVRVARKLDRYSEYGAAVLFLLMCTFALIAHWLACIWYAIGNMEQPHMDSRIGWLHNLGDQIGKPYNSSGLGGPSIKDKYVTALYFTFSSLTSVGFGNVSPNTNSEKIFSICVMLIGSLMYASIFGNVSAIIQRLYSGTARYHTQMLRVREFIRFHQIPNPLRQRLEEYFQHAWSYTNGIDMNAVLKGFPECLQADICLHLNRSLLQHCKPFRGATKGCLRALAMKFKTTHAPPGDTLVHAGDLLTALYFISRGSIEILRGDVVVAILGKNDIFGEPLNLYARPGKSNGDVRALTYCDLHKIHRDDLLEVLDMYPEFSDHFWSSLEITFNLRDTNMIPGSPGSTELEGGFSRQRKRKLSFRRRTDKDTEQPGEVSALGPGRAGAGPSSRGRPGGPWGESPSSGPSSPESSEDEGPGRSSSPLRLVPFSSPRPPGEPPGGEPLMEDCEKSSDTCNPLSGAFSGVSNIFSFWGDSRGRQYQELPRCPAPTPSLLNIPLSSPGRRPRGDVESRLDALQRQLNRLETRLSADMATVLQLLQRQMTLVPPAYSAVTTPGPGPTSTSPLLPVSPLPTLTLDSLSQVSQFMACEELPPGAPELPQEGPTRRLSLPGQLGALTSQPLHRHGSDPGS

| Compound | hERG current change (%, negative = inhibition) at 10uM [%] |
| --- | --- |
| Cc1ccc(C(=O)NCC(=O)N2CCc3ccccc3C2)cc1C | -3.34 |
| CN1C(=O)NC(c2ccc(O)cc2)C2=C1CN(c1cccc3ccccc13)C2=O (stereo not drawn) | -11.8 |
| O=C(CN(Cc1cccs1)C(=O)CNS(=O)(=O)c1ccc(Cl)cc1)NCc1ccco1 | -34.9 |
| CCOC(=O)N1CCN(Cc2nc3ccc([N+](=O)[O-])cc3c(=O)n2-c2cccc(OC)c2)CC1 | -39.8 |
| COc1ccc(NS(=O)(=O)c2ccc(F)c(Cl)c2)cn1 | 9.8 |
| CCc1c(C2(O)CCCCC2)[nH]c2ccc(C(F)(F)F)cc12 | 31 |
| COc1ccc(-c2cn(-c3ccc(Cl)cc3)c3[n+]2CCCCC3)cc1.[Br-] | -31.9 |
| Cc1ccsc1/C=C/c1n[nH]c(=O)c(C#N)c1C | 11.4 |
| O=C(CCSc1nnc(-c2ccncc2)o1)Nc1ccccc1Cl | -10.9 |
| Cc1nc(-c2coc3cc(OCC(=O)O)ccc3c2=O)cs1 | -3.01 |
| Nc1ccn(-c2ncc(C(F)(F)F)cc2Cl)c(=O)n1 | 1.7 |
| COc1ccc(-n2ncc3c(N(C)C4CCCCC4)ncnc32)cc1 | 4.48 |
| COc1cc(SC)ccc1C(=O)Nc1ccccc1 | -3.75 |
| COc1ccc(-c2cc(CNC(C)=O)on2)cc1 | 10.8 |
| COc1ccc(S(=O)(=O)Nc2cc3c4c(c2)CCN4C(=O)CC3)cc1C | -26.9 |
| O=C(CCC1CCCCC1)NNC(=O)c1cnccn1 | -4.92 |
| COc1ccc(C(=O)NC(C)c2nccs2)cc1OC1CCN(C(C)C)CC1 (stereo not drawn) | 8.16 |
| CC(C)(C)NC(=O)Cc1ccc(Cl)c(Cl)c1 | 23.1 |
| Nc1nnc(CC(=O)N/N=C/c2cccc([N+](=O)[O-])c2)s1 | 16.6 |
| COCCOC(=O)c1c(NC(=O)CNC2CCCc3ccccc32)sc(C(N)=O)c1C (stereo not drawn) | -30.4 |
| Cc1ccccc1OCCOc1cccc(/C=N/NC(=O)Cc2nnc(N)s2)c1 | 14.2 |
| O=C(c1cccc(Cl)c1)N1CCN(C(=O)c2ccco2)CC1 | -8.43 |
| C=CCNc1nc(NCCN2CCOCC2)nc(OC)n1 | -4.89 |

| Compound | hERG current change (%, negative = inhibition) at 10uM [%] |
| --- | --- |
| CSC1=C(C#N)C(CC(C)C)C(C(C)=O)=C(C)N1 (stereo not drawn) | -1.73 |
| Cc1cc(C)c(NC(N)=S)c(C)c1 | 12.8 |
| CCOC(=O)c1[nH]c2ccccc2c1NC(=O)c1ccc(S(=O)(=O)N2CCOCC2)cc1 | -33.7 |
| COc1ccc(CNC(=O)CCc2c(C)nc3cc(-c4ccccc4OC)nn3c2C)cc1 | -37.7 |
| Cl.c1ccc2c(c1)N1CCN=C1N2CCN1CCCCC1 | -15.3 |
| CCC(=O)Nc1ccc(S(=O)(=O)Nc2nccs2)cc1 | 19.5 |
| O=C(Nc1ccc(F)cc1)N1CCc2ccccc2C1 | -22.6 |
| O=c1cc(NCc2ccco2)c2ccccc2o1 | 7.67 |
| O=C(N/N=C/c1cccnc1)c1ccc(NC(=O)c2cccc(Cl)c2)cc1 | 15.3 |
| CNC(=O)c1cc(S(=O)(=O)Nc2ccc3c(c2)OCCO3)ccc1C | 4.54 |
| COc1ccc(C(C(=O)OCCN(C)C)c2ccccc2)cc1.Cl (stereo not drawn) | -36.6 |
| COc1ccc(-c2cc(CNC(=O)CN3CCN(C)CC3)on2)cc1 | 1.99 |
| COc1cc(C)c(NC(=S)Nc2ccc(Cl)c(Cl)c2)cc1OC | 5.06 |
| CC(=O)c1cc(NC(=O)c2ccccc2)c(=O)oc1C | 5.99 |
| O=C(Nc1ccc(N2C(=O)C3C4C=CC(C4)C3C2=O)cc1)Nc1nnc(C(F)(F)F)s1 (stereo not drawn) | 4.18 |
| O=[N+]([O-])c1ccc(OCC(O)CN2CCN(c3ccccc3F)CC2)cc1 (stereo not drawn) | -75.3 |
| O=C(Nc1ccc(C(=O)O)cc1)/C(=C\c1ccc2c(c1)OCO2)NC(=O)c1ccco1 | 45.1 |
| COc1cc(NC(=O)c2ccccc2)c(OC)cc1NC(C)=O | -6.29 |
| COc1ccc(C(=O)Nc2ccc(-c3ccc(C)o3)cc2)cc1S(=O)(=O)N1CCOCC1 | 14.6 |
| CCC(CCC(=O)Nc1ccc(S(N)(=O)=O)cc1)C(=O)O (stereo not drawn) | 0.228 |
| CC1(C)CC(=O)C2=C(C1)N=C1c3ccccc3C(=O)C1C2c1ccc(Cl)cc1 (stereo not drawn) | -18.2 |
| Cc1ccccc1-c1nc(Cc2ccc(Cl)cc2)no1 | 0.775 |
